Data published in US20220372107A1 (ACCELERON PHARMA, published 2022).
Where two headings read alike, the source gives them in different places. Each block holds one binder with its values, some of them ahead of it.

Tests used:
TGFβ1 [1] = biological target: T1, TGFβ1 (human, UniProt P01137 part only); experiment: Biacore (surface plasmon resonance)
T1 construct: also called human TGFβ1; TGF 1

TGFβ1 [2] = biological target: T1, TGFβ1; experiment: cell-based or functional assay
TGFβ1 [3] = biological target: T1, TGFβ1; experiment: cell-based or functional assay; remark: listed apart in the source
TGFβ1 [4] = biological target: T1, TGFβ1; experiment: cell-based or functional assay; remark: listed apart in the source

T1 sequence (P01137 279-390 limits assumed): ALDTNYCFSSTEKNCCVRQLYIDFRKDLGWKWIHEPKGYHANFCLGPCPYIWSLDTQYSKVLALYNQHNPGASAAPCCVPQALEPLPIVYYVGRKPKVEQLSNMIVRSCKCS

B1: hTβRII (G4S)5-hFc (Fc fusion)
chain: GATIPPHVQKSDVEMEAQKDEIICPSCNRTAHPLRHINNDMIVTDNNGAVKFPQLCKFCDVRFSTCDNQKSCMSNCSITSICEKPQEVCVAVWRKNDENITLETVCHDPKLPYHDFILEDAASPKCIMKEKKKPGETFFMCSCSSDECNDNIIFSEEYNTSNPDTGGGGSGGGGSGGGGSGGGGSGGG[not shown - human IgG1 Fc and a few adjoining residues]
notes: Expressed in CHO cells; The leader is removed as for m1; Tested only in the reporter gene assay
Kd (TGFβ1 [1]): 0.0088 nM
IC50 (read off the curve) (TGFβ1 [2]): ~3 ng/mL
IC50 (A549 CAGA12 luciferase reporter) (TGFβ1 [3]): 0.03 nM

B2: hTβRII (G4S)6-hFc (Fc fusion)
chain: GATIPPHVQKSDVEMEAQKDEIICPSCNRTAHPLRHINNDMIVTDNNGAVKFPQLCKFCDVRFSTCDNQKSCMSNCSITSICEKPQEVCVAVWRKNDENITLETVCHDPKLPYHDFILEDAASPKCIMKEKKKPGETFFMCSCSSDECNDNIIFSEEYNTSNPDTGGGGSGGGGSGGGGSGGGGSGGGGSGGG[not shown - human IgG1 Fc and a few adjoining residues]
notes: Tested only in the reporter gene assay
Kd (TGFβ1 [1]): 0.0038 nM
IC50 (read off the curve) (TGFβ1 [2]): ~2 ng/mL
IC50 (A549 CAGA12 luciferase reporter) (TGFβ1 [3]): 0.02 nM

B3: hTβRII (G4S)3-hFc (Fc fusion)
chain: GATIPPHVQKSDVEMEAQKDEIICPSCNRTAHPLRHINNDMIVTDNNGAVKFPQLCKFCDVRFSTCDNQKSCMSNCSITSICEKPQEVCVAVWRKNDENITLETVCHDPKLPYHDFILEDAASPKCIMKEKKKPGETFFMCSCSSDECNDNIIFSEEYNTSNPDTGGGGSGGGGSGGG[not shown - human IgG1 Fc and a few adjoining residues]
notes: Expressed in CHO cells; The leader is removed as for m1
IC50 (A549 CAGA12 luciferase reporter) (TGFβ1 [4]): 0.22 nM

B5: hTβRII-hFc (Fc fusion)
chain: GATIPPHVQKSDVEMEAQKDEIICPSCNRTAHPLRHINNDMIVTDNNGAVKFPQLCKFCDVRFSTCDNQKSCMSNCSITSICEKPQEVCVAVWRKNDENITLETVCHDPKLPYHDFILEDAASPKCIMKEKKKPGETFFMCSCSSDECNDNIIFSEEYNTSNPDTG[not shown - human IgG1 Fc and a few adjoining residues]
notes: Expressed in CHO cells; also called TβRII-Fc fusion protein with TGGG linker
IC50 (A549 CAGA12 luciferase reporter) (TGFβ1 [4]): 7.69 nM

B7: hTβRII (G4S)4-hFc (Fc fusion)
chain: GATIPPHVQKSDVEMEAQKDEIICPSCNRTAHPLRHINNDMIVTDNNGAVKFPQLCKFCDVRFSTCDNQKSCMSNCSITSICEKPQEVCVAVWRKNDENITLETVCHDPKLPYHDFILEDAASPKCIMKEKKKPGETFFMCSCSSDECNDNIIFSEEYNTSNPDTGGGGSGGGGSGGGGSGGG[not shown - human IgG1 Fc and a few adjoining residues]
IC50 (A549 CAGA12 luciferase reporter) (TGFβ1 [4]): 0.07 nM

Other lines, results leading:

IC50 (A549 CAGA12 luciferase reporter) (TGFβ1 [4]): 1.12 nM
B4: hTβRII (G4S)2-hFc (Fc fusion)
chain: GATIPPHVQKSDVEMEAQKDEIICPSCNRTAHPLRHINNDMIVTDNNGAVKFPQLCKFCDVRFSTCDNQKSCMSNCSITSICEKPQEVCVAVWRKNDENITLETVCHDPKLPYHDFILEDAASPKCIMKEKKKPGETFFMCSCSSDECNDNIIFSEEYNTSNPDTGGGGSGGG[not shown - human IgG1 Fc and a few adjoining residues]
notes: as for B3

IC50 (A549 CAGA12 luciferase reporter) (TGFβ1 [4]): 5.67 nM
B6: hTβRII extended hinge-hFc (Fc fusion)
chain: GATIPPHVQKSDVEMEAQKDEIICPSCNRTAHPLRHINNDMIVTDNNGAVKFPQLCKFCDVRFSTCDNQKSCMSNCSITSICEKPQEVCVAVWRKNDENITLETVCHDPKLPYHDFILEDAASPKCIMKEKKKPGETFFMCSCSSDECNDNIIFSEEYNTSNPDTGGG[not shown - human IgG1 Fc]
notes: as for B3
